From publication PMC5836133
The list shows a part of the results. At the low end of the ranking the order means little.

Test system: T1, GST-NbGlk1(82-244)
T1 sequence: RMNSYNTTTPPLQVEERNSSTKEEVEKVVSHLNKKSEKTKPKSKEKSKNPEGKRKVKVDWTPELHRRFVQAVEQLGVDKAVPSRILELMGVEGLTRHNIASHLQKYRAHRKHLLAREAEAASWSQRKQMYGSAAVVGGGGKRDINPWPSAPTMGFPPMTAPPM
Test: protein-binding microarray;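 also: rank-based score ranging −0.5 to +0.5 with E above 0.45 taken as significant binding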
Conditions: NbGlk1 is a Golden2-like transcription factor of Nicotiana benthamiana; high values mean tight binding; most listed sequences are background and not binding sites; double strand, one strand shown

Sequence | binding signal [E-score]
CACGGGAA | 0.00932
ACTAGGCG | -0.0141
AACTCTGT | -0.0296
ATAGCTAG | -0.0111
AGAAGGGC | -0.299
ACGGGCTC | -0.215
ACGCTATC | 0.125
ACGCACAG | -0.238
AAATTTTG | 0.193
ATGTGTGA | 0.103
ATAGGGGC | -0.206
AGACTCGG | -0.281
AGCACTCC | -0.2
AAGTCACC | -0.247
ATCCAAAA | 0.261
ATAGGGCA | -0.053
AGATGAGC | -0.231
CACTTAAG | -0.0632
ACAGGCTG | -0.267
AGAAAGCT | -0.0777
ACCAGGGG | -0.155
ATGTTTTC | 0.0962
ACGCCAAC | -0.253
ACGGGATG | -0.165
AGATAAGA | 0.0592

Sequence | binding signal [E-score]
ACATCATG | -0.0829
AGTAGAAC | -0.0712
AAAGGGCG | -0.213
ATCGAGAT | 0.327
ACACACCT | -0.176
AGGGACTC | -0.144
AACAAGGG | -0.0574
AACTAGGC | 0.0165
ACAGCTCG | -0.0196
AGTAACGG | -0.192
CAAATCAC | 0.272
ATGTGTCC | -0.128
AGTTTCTC | -0.118
AAACTCAT | -0.0877
CACGTGTC | -0.129
ACCAGATG | 0.00702
ACCTGACC | -0.226
AACAGGTC | -0.131
ACAAGCCG | -0.275
AGCGAGCG | -0.114
CAGCGGGG | -0.223
AACCGGAC | -0.223
ACACACTG | -0.174
ACGTTCCA | -0.0429
AGAACTCA | -0.0434

Sequence | binding signal [E-score]
CAGATCGA | 0.0635
AGTATAGA | 0.16
AATGATAA | 0.0774
AGACTACT | -0.000398
ATAGGTCC | -0.174
CAAAAAGC | -0.126
ACTAGTCG | -0.15
AAGGCCAC | -0.202
AATAAAAC | 0.013
ATACGTTC | 0.0917
AATTAGTG | 0.133
AGGACGAC | -0.193
ACTACCTC | -0.205
ACACAGCC | -0.163
ATAGCCGA | 0.0886
AGCCTGGA | -0.159
AAGGGGCC | -0.386
AGGAGGAA | -0.0358
AACCATCT | -0.0747
AGACCACC | -0.371
ACCCCAGT | -0.146
CACTCGCA | 0.00857
ATAACTCC | -0.0541
ATTGCTTA | 0.199
AGGGACAT | -0.144

Sequence | binding signal [E-score]
AGGTCGCC | -0.217
AGTTTGTA | 0.0146
AGGATTAT | 0.31
AGGTGTTA | 0.0108
ACTTGAAG | -0.0448
ACTTGTCA | -0.136
AATGCGAA | 0.0515
AGGCCATC | -0.192
AACGACTG | -0.116
CACTTAGC | -0.204
AACCCCTC | -0.099
ATTTCTTA | 0.314
ACATGCTC | -0.226
AAATTCTT | 0.191
AATCGATT | 0.353
CAACCGAA | -0.0389
AAGTCACA | -0.131
AGGACTAT | -0.109
AGGAGTAG | -0.174
ACGGTCGA | -0.131
AAGGTTAG | -0.14
AATCAAGT | 0.233
AGTCGACC | -0.233
AAAGACTA | -0.0211
ATTAAGCC | -0.152

Sequence | binding signal [E-score]
AGGTACAC | -0.145
AGTATTCC | 0.00935
ATGCCAAA | -0.0864
CAAGATTA | 0.314
AGGTTAGC | -0.31
AACCGTGT | -0.088
CAAGACCC | -0.279
ACGGGGAG | -0.163
AGATCCTA | 0.314
ATGCATGG | -0.115
AAACGACT | 0.0491
CACAGATC | 0.214
AGTATGCG | -0.0409
AGTACACG | -0.16
AAACGGAA | 0.0282
ACATAAAC | -0.0325
AGAGGGTG | -0.222
ACCGGCTC | -0.312
AATGCTGA | 0.0577
CACAACCC | -0.0837
AAATTCCT | 0.176
AGGGCGCG | -0.0419
ACGTGTAT | -0.0169
ATAGCCAT | -0.0482
ACAGTCAA | 0.0572

Sequence | binding signal [E-score]
AACGAGTA | -0.0344
AGTTTGCC | -0.0988
AGAACCTG | -0.173
AGCACCGA | -0.137
CAAGCTAA | -0.145
ACGGTTAG | -0.184
AACCCGAA | 0.0302
ACTAGCCG | -0.128
AACAGAGA | -0.0323
AGACCGAT | -0.0375
AGCCGGCC | -0.394
CACGACGC | -0.189
ACTGCGCT | -0.0116
AACTAGGG | -0.165
AAATGTCA | 0.113
CAGAGAGA | -0.0859
AACACATC | -0.0668
ATAGTGAC | -0.0982
ACTCTTAG | -0.135
AACTGATC | 0.0627
AATTGGCT | -0.0911
CACCGCCA | -0.106
ACTATGAG | -0.151
AGGCACCG | -0.303
ACGCAAGA | 0.00406

Sequence | binding signal [E-score]
AAACGGGA | -0.0376
CAGCGAAC | -0.132
AAGGTGGT | -0.204
AGGGAGCA | -0.223
AACGCTGG | -0.14
AGAGGGCA | -0.211
AACGCCGA | -0.13
AAATCTGA | 0.469
AAAAAACT | 0.0615
AGCTTGAG | -0.18
ACAAGCAC | -0.11
CAGAATCG | 0.33
AGGCACTA | -0.177
AGCGGAGC | -0.124
AGTTGGCG | -0.182
CAAGTCGA | -0.155
ATATCGAT | 0.347
AAGACTCC | -0.137
AAGCTCAG | -0.131
AGTTGGGG | -0.122
ACACTGTG | -0.091
ACCACCGT | -0.191
ATCATGGG | -0.0545
AAAGAGAT | 0.27
AATGCGAG | 0.00187

Sequence | binding signal [E-score]
ACTCGCGA | 0.169
AGGTATTA | -0.00782
AAATTTTA | 0.24
AGCAAGAT | 0.309
AAGCAGCG | -0.159
AATTCGCC | 0.138
ATCCGACA | 0.198
AGCGGAAA | 0.0742
AATGCGGC | -0.137
AAGCCGAA | -0.0105
ATCTCGTG | 0.357
ATCCAGCC | 0.215
AACCCCCT | -0.371
AGAGTATC | 0.319
ATCCTAGG | 0.0855
AATGGAAT | 0.152
ACCCGCAG | -0.129
AGCATCAC | 0.0464
AGTGTGGA | 0.0588
ACGAAAGC | -0.235
AGCCGTAG | -0.195
AGCGATAG | -0.0969
AGTGCCAA | -0.2
ATGGCCGC | -0.216
AAATTGAT | 0.178

Sequence | binding signal [E-score]
AAACCCAA | -0.0425
AGAATAGA | 0.0813
ATTGGCAA | 0.0262
ACTAGAGT | -0.0548
ACACTACG | -0.0876
AGCCCTAA | -0.222
ACCCCTAA | -0.0998
ATTACGCA | 0.355
AAGTGATC | 0.0531
ACGTTATA | 0.154
ATAACAGA | 0.201
ACTCAAGA | 0.0654
AGTTAGGG | -0.17
AAAAATAT | 0.3
ATGTCCGA | -0.0812
ACGAGGCA | -0.124
ATCTAGTC | 0.251
AATCGCTC | 0.133
AATGCCGT | -0.0641
AGTTAACC | -0.154
AAGGCGAG | -0.216
AGTTCGCG | -0.113
AACTTCGG | -0.222
CACTGTCA | -0.065
CACCGCTC | -0.204

Sequence | binding signal [E-score]
AATCGGAT | 0.357
AATCGCAG | 0.224
AGGACCTA | -0.103
AGAATGAA | -0.0682
AGAAATAC | 0.117
ACGTCTGA | -0.146
ATGATGGA | 0.0836
AGCAGAAT | 0.255
ACAATCCG | 0.334
AGGGCTTC | -0.32
ATAAGTGC | 0.0522
CACTCCAC | -0.121
AAGTCACT | -0.158
ACACAACG | 0.0492
CAATCCAA | 0.298
ATACGCAC | 0.211
ATGGGCGG | -0.145
ACTCTTCT | -0.113
CACGAATG | -0.016
AGAAAACT | -0.205
AGATCGAC | 0.113
ATTCAACG | 0.0303
AAGCTATA | 0.0749
AACTTGCG | -0.0258
AGGGCTCA | -0.317

Sequence | binding signal [E-score]
AGAGTGGC | -0.286
AAGAAGCT | -0.182
CACGCCAA | -0.0798
AAAGATTT | 0.427
ACGGGTTC | -0.257
AGCAGGAA | -0.125
ACTGTCAA | 0.101
CAATAGCG | 0.0213
ATAGCTCG | 0.0253
ATCAATTC | 0.0438
AGAGAGCA | -0.169
AAGCGCAC | -0.235
AAAAAGCA | -0.0897
AAACTGGA | 0.00977
ACTAAGCT | -0.0885
AACACTAC | -0.0479
CACGATTA | 0.202
ATAACCCG | 0.00934
ACTAGCTC | -0.0228
CAAAAAAA | 0.148
ACAAGCGG | -0.116
ATAAGAGC | -0.00401
AACCTACA | -0.1
AACGAGAA | 0.122
AACCCACG | -0.18

Sequence | binding signal [E-score]
AGGAGTCC | -0.265
AGACGGTA | -0.171
ATACTAAC | 0.0388
AAACACGT | 0.0292
AAATTGCT | 0.145
ATACAACA | 0.131
AGAGGTAT | -0.081
ATGTAGAC | -0.0436
CAATTGAA | 0.0472
AACACATT | 0.0334
AGGATATC | 0.469
AACTGGAA | 0.0488
ATCCGAAA | 0.249
AAGAGGTC | -0.2
AAGCTGGA | -0.0621
ACTGAGCG | -0.0398
ACCGCAGC | -0.0974
AGTTGTAG | -0.00706
ACCCAGAT | 0.247
ACGAACCT | -0.103
ATGGCAAC | -0.198
ACCGCGTC | -0.249
AAACGGCA | -0.11
AATCGGGA | 0.301
ACACGACT | -0.16

Sequence | binding signal [E-score]
ACTTCGAA | 0.103
ATAGACTG | -0.231
AACTAAAT | 0.113
ATGGAGCA | -0.17
ATACTGGC | -0.0649
CACCTAGA | 0.0734
ACGATTCC | 0.4
AAGCGCTA | -0.226
AGACGCTC | -0.182
AAATAACA | 0.149
CACGCTAA | -0.181
ACCATCAA | -0.119
ATTGCACA | 0.275
ATGGTATG | -0.0619
AGGACGTG | -0.179
ACAGTGAA | -0.181
AAACACAG | 0.0399
ATCGTGGG | 0.137
AAGGTACA | -0.0699
ATAGACAG | 0.00333
AGGTAGCC | -0.283
CAGACGCA | -0.036
AGAAGCGG | -0.176
AACGCTAC | -0.0778
AAAGGAAT | 0.27

Sequence | binding signal [E-score]
AGATACTG | 0.33
AATATGAG | 0.214
ATATTAGA | 0.212
AAAGTTGG | -0.0352
CACGACAC | -0.0798
ACCTGTAT | 0.138
AGTAGTGG | -0.0593
AATACCGC | 0.0854
AGTAGCGA | 0.0444
ACAGGGCA | -0.158
AATGACGC | -0.162
ACAGGACA | -0.104
AAACAAAT | 0.18
AAGCCCAG | -0.297
CAAAGGTA | -0.157
AAATTTGG | 0.147
AGGCTATA | -0.142
AGTTAGCC | -0.145
ATGCTCGC | -0.175
